The values below come from the supplement of paper PMC10670038.

Structures can show the parent of a compound that is named as a salt. ± gives the standard deviation of the averaged measurements. In all, about 2,000 compounds were measured (“relative cell viability vs DMSO, compound alone”: median about 1.1, lowest 2% from about 0.29 on). The list shows a part of the results.

This assay concerns TE10. Kind of assay: relative cell viability vs DMSO, compound alone (fraction); TE10 is an esophageal squamous carcinoma line; higher = less cytotoxic. Particulars: 2 µM; 48 h. As to the method:
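TE10 ESCC cells (1,000/well, 384-well plates) were treated with Selleck bioactive library compounds at 2 uM alone for 48 h. Viability was read by CellTiter-Glo and expressed relative to DMSO wells. Two technical replicates (A, B).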
As for `C=CCc1cc(OC)c(O)c(C(=O)NCCO)c1` [Alibendol], the relative cell viability was 0.894 ± 0.033. The compound `CCOc1cn(-c2ccc(F)cc2C)nc1C(=O)Nc1ccc(Oc2ccnc3cc(OC)c(OC)cc23)c(F)c1` came in with a relative cell viability of 1.06 ± 0.061. In turn, `C#C[C@]1(O)CC[C@H]2[C@@H]3CCC4=CC(=O)CC[C@@H]4[C@H]3CC[C@@]21C` [Norethindrone] gave a relative cell viability of 1.15 ± 0.076. As for `C#C[C@]1(OC(C)=O)CC[C@H]2[C@@H]3CCC4=C[C@@H](OC(C)=O)CC[C@@H]4[C@H]3CC[C@@]21C` [Ethynodiol diacetate], the relative cell viability stood at 1.1324 ± 0.00089. Turning to `CC(C)[C@H](C(=O)Nc1ccc(C(=O)NO)cc1)c1ccccc1`, the relative cell viability was determined as 0.221 ± 0.015.

On to `Nc1ccc(S(=O)(=O)Nc2ncccn2)cc1` [Sulfadiazine], for which the relative cell viability was found to be 0.961 ± 0.083. `CCCC(C)NC(=O)c1ccc(Cl)c(Cl)c1` (centres undefined) returned a relative cell viability of 1.162 ± 0.004. Consider `CNC1CCC(N(Cc2cccc(-c3ccncc3)c2)C(=O)c2sc3ccccc3c2Cl)CC1` (centres undefined) [Smoothened Agonist (SAG) HCl], for which the relative cell viability came to 1.135 ± 0.0013. `Nc1ccc(O)c(C(=O)O)c1` [Mesalamine] came in with a relative cell viability of 1.02 ± 0.024. The compound `COC(=O)N1CCN(Cc2cccc(NC(=O)Nc3ccc(C)nc3)c2F)CC1` gave a relative cell viability of 1.04 ± 0.047. In turn, `O=C(O)CSc1cc(NS(=O)(=O)c2ccc(Br)cc2)c2ccccc2c1O` gave a relative cell viability of 0.967 ± 0.24. As for `CN(C)CCCN1c2ccccc2CCc2ccc(Cl)cc21` [Clomipramine HCl], the relative cell viability came out at 1.02 ± 0.031. As for `COC(=O)C1=C(C)NC(C)=C(C(=O)OC)C1c1ccccc1[N+](=O)[O-]` [Nifedipine], the figure is 1.05 ± 0.045.

As to `NC(=O)c1cccc2[nH]c(-c3ccc(C4CCCN4)cc3F)nc12` (centres undefined), the relative cell viability was determined as 0.9172 ± 0.0024. For `CC(C)NC[C@H](O)COc1ccc(CCOCC2CC2)cc1` [Levobetaxolol HCl] the value was 0.768 ± 0.035; for `COc1cc2c(cc1O)CC[C@@H]1[C@@H]2CC[C@]2(C)[C@@H](O)CC[C@@H]12` [2-Methoxyestradiol (2-MeOE2)], 0.582 ± 0.21; for `COc1cc(N2CCN(C)CC2)ccc1Nc1nccc(-c2cn(C)c3cnccc23)n1`, 1.1305 ± 0.0005. `C[C@@H](c1ncncc1F)[C@](O)(Cn1cncn1)c1ccc(F)cc1F` [Voriconazole] yielded a relative cell viability of 1.01 ± 0.22. In the case of `Cc1c(NC(=O)c2ccc(C(C)(C)C)cc2)cccc1-c1cn(C)c(=O)c(Nc2ccc(C(=O)N3CCOCC3)cc2)n1`, the relative cell viability came out at 1.09 ± 0.095. Regarding `O=C(O)Cc1ccccc1Nc1c(Cl)cccc1Cl` [Diclofenac Diethylamine], the relative cell viability was 1.07 ± 0.038. Regarding `O=C(O)Cc1ccccc1Nc1c(Cl)cccc1Cl` [Diclofenac Sodium], the relative cell viability worked out at 1.13 ± 0.045.

`O=C(O)Cc1ccccc1Nc1c(Cl)cccc1Cl` [Diclofenac Potassium] registered a relative cell viability of 0.908 ± 0.26.

As for `C[C@@H]1CC(=O)NN=C1c1ccc(NN=C(C#N)C#N)cc1` [Levosimendan], the relative cell viability came to 0.843 ± 0.16. For `CN(C)CCCNC(=O)c1ccc(-c2cc(O)c3ncccc3c2)cc1`, the relative cell viability was determined as 1.06 ± 0.079. In turn, `N=c1ccn2c(n1)O[C@H]1[C@H](O)[C@@H](CO)O[C@H]12` [Cyclocytidine HCl] showed a relative cell viability of 0.964 ± 0.024. With `CNC(=O)c1ccc2cc([C@@]3(O)CCn4cncc43)ccc2c1` [TAK-700 (Orteronel)], the relative cell viability came to 1.21 ± 0.024. For `CC(=O)Oc1cc(C(F)(F)F)ccc1C(=O)O` [Triflusal] the value was 0.869 ± 0.1; for `Cc1cncc(CN2CCC(=C3c4ccc(Cl)cc4CCc4cccnc43)CC2)c1` [Rupatadine Fumarate], 0.992 ± 0.029. `CS(=O)(=O)c1ccc([C@@H](O)[C@@H](CO)NC(=O)C(Cl)Cl)cc1` [Thiamphenicol] gave a relative cell viability of 1.27 ± 0.053. As for `C[C@]12C=CC(=O)C=C1CC[C@@H]1[C@@H]2[C@@H](O)C[C@@]2(C)[C@H]1CC[C@]2(O)C(=O)CO` [Prednisolone], the figure is 0.997 ± 0.037.

The compound `O=c1ncn2nc(Sc3ccc(F)cc3F)ccc2c1-c1c(Cl)cccc1Cl` showed a relative cell viability of 1.21 ± 0.017.

In turn, `O=c1[nH]cc(F)c(=O)[nH]1` [Fluorouracil (5-Fluoracil, 5-FU)] had a relative cell viability of 1.07 ± 0.022. Compound `CCn1c(=O)c(-c2ccc(-c3cncs3)cc2Cl)cc2cnc(Nc3ccc(N4CCN(C)CC4)cc3)nc21` returned a relative cell viability of 0.98 ± 0.023.

For `Cc1cnc(Nc2ccc(N3CCN(C)CC3)cc2)nc1Nc1cccc(S(=O)(=O)NC(C)(C)C)c1`, the relative cell viability was 0.8501 ± 0.00098. `O=C1NC(=O)/C(=C/c2ccc(-c3ccc(F)cc3O)o2)S1` gave a relative cell viability of 0.958 ± 0.04. `CC(C)CCN1c2nc(Nc3cc(F)c(O)c(F)c3)ncc2N(C)C(=O)C1C` (centres undefined): the relative cell viability stood at 0.987 ± 0.015. `NC1(c2ccc(-c3nc4ccn5c(=O)[nH]nc5c4cc3-c3ccccc3)cc2)CCC1` had a relative cell viability of 0.91 ± 0.015. The compound `CC[C@@]1(O)C(=O)OCc2c1cc1n(c2=O)Cc2cc3cc(O)ccc3nc2-1` [(S)-10-Hydroxycamptothecin] came in with a relative cell viability of 0.451 ± 0.041. `Cc1cccc(-c2[nH]c(C(C)(C)C)nc2-c2ccc3nccnc3c2)n1` displayed a relative cell viability of 1.33 ± 0.027. With `CN1CCN(CCCNc2ncc(Cl)c(-c3cc4c(C(=O)NC5CC5)cccc4s3)n2)CC1`, the relative cell viability is 0.99 ± 0.023. Compound `NC(=O)c1noc([C@H](CCCC2CCCCC2)CC(=O)NO)n1` displayed a relative cell viability of 1.04 ± 0.035. Consider `CCOc1ccn(-c2ccc(F)cc2)c(=O)c1C(=O)Nc1ccc(Oc2ccnc(N)c2Cl)c(F)c1`, for which the relative cell viability was determined as 1.04 ± 0.03. Take `CCn1cc(-c2ccnc3[nH]c(-c4cccc(CN(C)C)c4)cc23)c(-c2ccc(NC(=O)N(C)C)cc2)n1`: the relative cell viability was determined as 1.014 ± 0.0061. Compound `Cc1nc(Nc2n[nH]c3c2CN(C(=O)N[C@H](CN(C)C)c2ccccc2)C3(C)C)c2sccc2n1` gave a relative cell viability of 0.789 ± 0.037. Turning to `CNC[C@H](O)c1cccc(O)c1` [Phenylephrine HCl], the relative cell viability was 1.119 ± 0.0098. For `O=S(=O)(NCCNCC=Cc1ccc(Br)cc1)c1cccc2cnccc12`, the relative cell viability turned out to be 1.14 ± 0.018. The compound `CC(C)C[C@H](NC(=O)CNC(=O)c1cc(Cl)ccc1Cl)B(O)O` returned a relative cell viability of 0.341 ± 0.023. Compound `N#C[C@@H]1CCCN1C(=O)CNC12CC3CC(CC(O)(C3)C1)C2` [Vildagliptin (LAF-237)] yielded a relative cell viability of 0.7629 ± 0.0045.

`CCN(CC)CCN(Cc1ccc(-c2ccc(C(F)(F)F)cc2)cc1)C(=O)Cn1c(SCc2ccc(F)cc2)nc(=O)c2c1CCC2` returned a relative cell viability of 1.03 ± 0.043. Compound `CNC(=C[N+](=O)[O-])NCCSCc1ccc(CN(C)C)o1` [Ranitidine] showed a relative cell viability of 1.05 ± 0.06. For the compound `C=CCc1ccc(O)c(-c2ccc(O)c(CC=C)c2)c1` [Honokiol], the relative cell viability is 0.933 ± 0.013. Compound `COc1cc2c(cc1OC)-c1cc3ccc(OC)c(OC)c3c[n+]1CC2` [Palmatine chloride] showed a relative cell viability of 0.9392 ± 0.0029. Compound `Cc1cc(N2CCOCC2)ccc1Nc1nc(NC2CCCCC2)c2[nH]cnc2n1` returned a relative cell viability of 1.098 ± 0.0034.

With `O=C(O)c1ccc(Nc2ncc3c(n2)-c2ccc(Cl)cc2C(c2c(F)cccc2F)=NC3)cc1`, the relative cell viability came out at 1.22 ± 0.016.

The compound `OCc1ccc(-c2ccc(-c3ccc(CO)s3)o2)s1` showed a relative cell viability of 0.0807 ± 0.0069. For `O=c1c(-c2ccc(O)cc2)coc2cc(O)cc(O)c12` [Genistein] the value was 1.23 ± 0.026.

Take `CSc1cccc(Nc2ncc3cc(-c4c(Cl)cccc4Cl)c(=O)n(C)c3n2)c1`: the relative cell viability came to 0.76 ± 0.024. Take `COc1ccc2cccc(CCNC(C)=O)c2c1` [Agomelatine]: the relative cell viability was determined as 0.866 ± 0.045. Compound `C1=N/C2=N/c3ccc(OCCN4CCCC4)c(c3)COC/C=C/COCc3cccc(c3)C(=C1)N2` [Pacritinib (SB1518)] gave a relative cell viability of 0.87 ± 0.0098. For the compound `COc1cc(C=O)ccc1O` [Vanillin], the relative cell viability came to 1.11 ± 0.027.

Compound `C#C[C@]1(O)CC[C@H]2[C@@H]3CCc4cc(OC)ccc4[C@H]3CC[C@@]21C` [Mestranol] yielded a relative cell viability of 1.06 ± 0.043. For `CC(C)NCC(O)c1ccc(NS(C)(=O)=O)cc1` (centres undefined) [Sotalol] the value was 1.07 ± 0.013; for `CC(=O)N1CCN(c2ccc(OCC3COC(Cn4ccnc4)(c4ccc(Cl)cc4Cl)O3)cc2)CC1` (centres undefined) [Ketoconazole], 1.13 ± 0.024; for `CN(CCOc1ccc(NS(C)(=O)=O)cc1)CCc1ccc(NS(C)(=O)=O)cc1` [Dofetilide], 1.055 ± 0.008.

On to `Cc1[nH]c(/C=C2\C(=O)Nc3ccccc32)c(C)c1CCC(=O)O` [TSU-68 (SU6668, Orantinib)], for which the relative cell viability stood at 1.28 ± 0.12. For `CCN(CC)CCCC(C)Nc1c2ccc(Cl)cc2nc2ccc(OC)cc12` (centres undefined) [Quinacrine 2HCl] the value was 0.953 ± 0.031. For `O=C(O)P(=O)(O)O` [Foscarnet Sodium] the value was 1.16 ± 0.04; for `CC(C)(C)NS(=O)(=O)c1cncc(-c2cc(F)c3nc(N)nn3c2)c1`, 1.1 ± 0.056; for `COc1cc2ncnc(Nc3ccc(Cl)cc3F)c2cc1OC`, 0.999 ± 0.16. For `N#Cc1ccc2[nH]c(O)c(-c3ccc(CN4CCOCC4)cn3)c2c1` the value was 1.34 ± 0.035. With `Oc1ccc(Nc2nc(-c3ccc(Cl)cc3)cs2)cc1`, the relative cell viability was found to be 1.11 ± 0.019.

In turn, `CO[C@H]1C[C@@H]2CC[C@@H](C)[C@@](O)(O2)C(=O)C(=O)N2CCCC[C@H]2C(=O)O[C@H]([C@H](C)C[C@@H]2CC[C@@H](O)[C@H](OC)C2)CC(=O)[C@H](C)/C=C(\C)[C@@H](O)[C@@H](OC)C(=O)[C@H](C)C[C@H](C)/C=C/C=C/C=C/1C` [Rapamycin (Sirolimus)] yielded a relative cell viability of 0.818 ± 0.026.

Take `N[C@@H]1CCCN(c2c(/C=C3\SC(=O)NC3=O)cccc2-c2ccccc2)C1`: the relative cell viability turned out to be 1.03 ± 0.047. On to `CS(=O)(=O)Nc1ccc([N+](=O)[O-])cc1Oc1ccccc1` [Nimesulide], for which the relative cell viability turned out to be 1.09 ± 0.016. As for `C=CC(=O)Nc1cccc(Nc2nc(Nc3ccc(NC4CN(CCF)C4)cc3OC)ncc2C(F)(F)F)c1`, the relative cell viability is 0.912 ± 0.027. As for `CCC1=C[C@@H]2CN(C1)Cc1c([nH]c3ccccc13)[C@@](C(=O)OC)(c1cc3c(cc1OC)N(C)[C@H]1[C@@](O)(C(=O)OC)[C@H](OC(C)=O)[C@]4(CC)C=CCN5CC[C@]31[C@@H]54)C2` [Vinorelbine Tartrate], the figure is 0.917 ± 0.11; as for `CC(C)CN(C[C@@H](O)[C@H](Cc1ccccc1)NC(=O)O[C@H]1CCOC1)S(=O)(=O)c1ccc(N)cc1` [Amprenavir], 1.019 ± 0.0065; as for `CNC(=C[N+](=O)[O-])NCCSCc1csc(CN(C)C)n1` [Nizatidine], 1.08 ± 0.056. `CC1(C)[C@@H](O[C@H]2O[C@H](C(=O)O)[C@@H](O)[C@H](O)[C@H]2O[C@@H]2O[C@H](C(=O)O)[C@@H](O)[C@H](O)[C@H]2O)CC[C@]2(C)[C@H]3C(=O)C=C4[C@@H]5C[C@@](C)(C(=O)O)CC[C@]5(C)CC[C@@]4(C)[C@]3(C)CC[C@@H]12` [Ammonium Glycyrrhizinate] gave a relative cell viability of 1.13 ± 0.036.
